{"source": "paper PMC11387677", "about": "(The Journal of Biological Chemistry, 2024)", "binders": {"B1": {"name": "RPA32C (domain or fragment)", "chain": "not shown", "notes": "C-terminal winged helix protein recruitment domain of the RPA32 subunit of replication protein A; 15N-enriched for the NMR experiments; also called RPA32C protein recruitment domain; winged helix domain (32C)"}}, "molecular_target": "T1, NEIL1 wild-type (UniProt Q96FI4)", "T1 construct": "NEIL1 DNA glycosylase, wild-type gene in pET22b; called 44 kDa NEIL1; Expression vectors were a gift (Hegde and Mitra); also called WT NEIL1", "test": "ITC; RPA or RPA domain titrated with NEIL1; Microcal VP, 25 °C, 50 mM HEPES pH 7.5, 150 mM NaCl, 10% glycerol, 0.5 mM TCEP; 50 uM in the cell, 150 uM in the syringe", "details": "both partners purified"}
{"binder": "B1", "values": [{"measurement": "Kd", "value": 240, "unit": "nM"}]}
